Measured values as given in PubChem BioAssay AID488969 (Vanderbilt High Throughput Screening Facility, 2010).
Whole data set: some 110,000 compounds, median “z-score” near -0.1, cut for the highest 2% near 2. The list shows a part of the results. Activity calls are given as the source filed them.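 Rule for the calls: active = z-score in the third read window above 3 or below -3; inactive = the rest.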

Biological target: Metabotropic glutamate receptor 8 (Rattus norvegicus) (UniProt P70579)
Assay: mGluR8 Gi/Go-coupled signaling modulation – cell-based, rat, thallium flux, HTS, primary screen (AID 488969)
Settings: HEK293 rat mGluR8, GIRK (G protein-gated inwardly rectifying potassium channel) thallium flux, FluoZin2; at 10 µM; stronger effect = higher value; submaximal glutamate (EC20) added with thallium

Chain of UniProt P70579 (P70579 whole entry, looked up): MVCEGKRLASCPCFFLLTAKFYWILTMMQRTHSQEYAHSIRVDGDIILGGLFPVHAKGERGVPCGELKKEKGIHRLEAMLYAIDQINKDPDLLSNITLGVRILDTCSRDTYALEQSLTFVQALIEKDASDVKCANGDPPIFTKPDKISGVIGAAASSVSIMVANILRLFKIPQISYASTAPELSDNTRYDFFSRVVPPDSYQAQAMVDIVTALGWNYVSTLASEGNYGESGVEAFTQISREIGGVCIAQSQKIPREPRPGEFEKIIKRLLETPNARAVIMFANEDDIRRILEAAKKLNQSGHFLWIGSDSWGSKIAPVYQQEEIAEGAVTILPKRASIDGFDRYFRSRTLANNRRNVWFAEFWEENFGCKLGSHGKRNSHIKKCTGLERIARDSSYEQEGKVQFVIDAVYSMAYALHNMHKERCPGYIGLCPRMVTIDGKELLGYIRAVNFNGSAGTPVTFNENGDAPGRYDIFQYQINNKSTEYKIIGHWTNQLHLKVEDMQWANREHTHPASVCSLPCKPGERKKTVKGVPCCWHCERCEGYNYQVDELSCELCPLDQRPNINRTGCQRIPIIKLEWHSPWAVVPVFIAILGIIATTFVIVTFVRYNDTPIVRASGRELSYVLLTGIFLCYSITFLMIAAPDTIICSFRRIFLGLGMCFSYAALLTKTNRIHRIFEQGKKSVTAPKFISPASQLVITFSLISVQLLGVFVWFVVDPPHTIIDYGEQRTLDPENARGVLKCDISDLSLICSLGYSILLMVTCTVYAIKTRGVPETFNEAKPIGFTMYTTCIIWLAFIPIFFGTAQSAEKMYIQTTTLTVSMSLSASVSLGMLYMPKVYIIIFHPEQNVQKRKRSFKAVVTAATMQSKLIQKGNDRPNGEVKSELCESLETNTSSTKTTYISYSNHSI

Row | Compound | z-score
1 | NC(=O)CSc1nnc(C2CC2)n1-c1ccccc1 | -0.0176
2 | Cc1cc(C)nc(SCC(=O)Oc2ccc3oc(=O)cc(C)c3c2)n1 | 0.377
3 | CC(C)COc1ccc(CSCCNC(=S)Nc2ccccc2)cc1 | 0.518
4 | CCOc1cc(CO)ccc1OCC(=O)N1CCCCC1 | 0.0126
5 | C=CCn1c(SCC(=O)N2CCCC2)nc2scc(-c3cccs3)c2c1=O | -0.554
6 | Cc1nn(C)c(C(=O)Nc2ccc(Cn3cccn3)cc2)c1[N+](=O)[O-] | -0.0807
7 | COCC(=O)N1CCN(c2ccc([N+](=O)[O-])cc2)CC1 | -0.196
8 | CCOC(=O)C1=C(CC)Nc2ccccc2N=C1NC(=O)c1cc(S(=O)(=O)N(C)C)ccc1Cl | 0.243
9 | Cc1nc(C)c(C(=O)C2=C(O)C(=O)N(CCN(C)C)C2c2cccs2)s1 (stereo unspecified) | -0.163
10 | NC(=O)CSc1nnc(-c2cc3ccccc3o2)n1Cc1ccccc1 | -0.657
11 | CC1=C(C(=O)Nc2ccccc2)C(c2coc3ccccc3c2=O)C2=C(CCCC2=O)N1 (stereo unspecified) | -0.381
12 | Cc1cc(=O)n2[nH]c(-c3cccnc3)nc2n1 | -0.133
13 | O=C(c1ccccc1)n1nnc2ccccc21 | -0.0507
14 | Cc1ccccc1Cc1c(C)nc2nc(SCC(=O)NCc3ccco3)nn2c1C | 0.394
15 | CCOC(=O)CN(C(=O)Cn1nnc(-c2ccc(OC)cc2)n1)C(C(=O)NC1CCCC1)c1ccc(F)cc1 (stereo unspecified) | 0.146
16 | COCCNC(=O)/C(C#N)=C/c1c(N2CC(C)OC(C)C2)nc2ccccn2c1=O (stereo unspecified) | -0.347
17 | CN(CCOC(=O)c1ccc2c(c1)OCCO2)Cc1ccccc1 | -0.00693
18 | COc1ccc(-c2ccc(=O)n(CC(=O)Nc3nnc(C(C)C)s3)n2)cc1OC | 0.204
19 | CCOC(=O)c1cnc2c(C)c(Cl)ccc2c1Nc1ccc(S(=O)(=O)Nc2ncccn2)cc1 | active: 9.28
20 | Cc1cccc(N2CCc3c2nc2ccc(Br)cc2c3N)c1 | -0.484
21 | Cc1ccc(S(=O)(=O)N(CC(=O)NCCSc2ccccn2)c2cc(C)cc(C)c2)cc1 | -0.756
22 | Cc1cccc(NC(=S)N2CCCCC2)c1 | -0.264
23 | O=C(NCCc1ccc(Cl)cc1)C1CCN(S(=O)(=O)N2CCCCC2)CC1 | 0.286
24 | COC(=O)Cc1ccc(OCC(=O)Nc2ccc(OC(F)(F)F)cc2)cc1 | -0.392

Row | Compound | z-score
25 | Cc1c(C)n(C(=O)CSc2nncn2C)c2ccccc12 | -0.347
26 | O=C(O)CSc1ncnc2c1oc1ccccc12 | -0.235
27 | Cc1ccc[n+](-c2nc3ccccc3nc2C(=C=[N-])C#N)c1 | 0.113
28 | Cc1ccc(CC(=O)Nc2ccc(OC(F)F)c(Cl)c2)cc1C | 0.257
29 | Cc1nc(-c2coc3c(CN(C)C)c(O)ccc3c2=O)cs1 | -0.0726
30 | O=C(CCC1CCCCC1)NNC(=O)c1cnccn1 | -0.0464
31 | Cc1cccc(N(CC(=O)NCCSc2ccccn2)S(=O)(=O)c2ccccc2)c1 | -0.4
32 | Cc1ccc(S(=O)(=O)N(C)c2ccc(N)cc2)cc1 | -0.0845
33 | CCOC(=O)c1nn(-c2ccccc2C)c(=O)c(C#N)c1C | 0.836
34 | COc1ccc2occ(C(=O)c3cccs3)c2c1 | 0.191
35 | Cc1ccnc(NS(=O)(=O)c2ccc(NS(=O)(=O)c3cccs3)cc2)n1 | 0.185
36 | Cc1ccc(Nc2nc(=O)[nH]nc2C)cc1 | 0.154
37 | Cc1ccc(-c2c(C)sc(NC(=O)C3C4CCC(O4)C3C(=O)O)c2C(=O)OC(C)C)cc1 (stereo unspecified) | active: 4.99
38 | c1ccc2c(N3CCOCC3)nc(-c3ccncc3)nc2c1 | -0.255
39 | CCCCOc1ccc(CSC(=N)N)cc1[N+](=O)[O-] | 0.219
40 | COCCCNC(=O)/C=C/c1ccc(Cl)cc1 | 0.484
41 | CCOc1cc(CNCc2cccs2)cc(Br)c1OC | -0.659
42 | CN(C)S(=O)(=O)c1cccc(NC(=O)c2cc(-c3cccs3)nn2-c2ccccc2)c1 | -0.154
43 | CCCCCOc1ccccc1C(=O)NCCC(=O)O | -0.55
44 | C/C(=N\Nc1nc2ccccc2[nH]1)c1cc2ccccc2o1 | -0.627
45 | COc1ccc(C(=O)Nc2cc3c(cc2OC)CCCC3)cc1Br | 1.25
46 | NS(=O)(=O)c1ccc(CCNC(=O)c2cc(-c3ccccc3)nc3ccccc23)cc1 | -0.269
47 | O=C(CNC(=O)C1CCCCC1)OCc1cc(=O)oc2ccc3ccccc3c12 | -0.238
48 | Cc1cc(NC(=O)CCC(=O)N(CC(=O)NC2CCCC2)Cc2ccco2)no1 | -0.265

Row | Compound | z-score
49 | COc1ccc(CNC(=O)/C=C/c2ccc(OCCCF)cc2)cc1OC | 0.346
50 | CC(=O)N1CCN(c2ccc(NC(=S)NC(=O)c3ccccc3)cc2)CC1 | -0.0246
51 | COc1cccc(C2NC(=O)NC(C)=C2C(=O)Nc2ccc(C)cc2)c1 (stereo unspecified) | -0.932
52 | COc1ccccc1CNC(=O)C(C)NS(=O)(=O)c1ccc(Br)cc1 (stereo unspecified) | -0.542
53 | Cc1c(C(=O)NCCSCc2ccco2)cccc1[N+](=O)[O-] | -0.046
54 | CCSc1nnc(NC(=O)NC(CC)(C(F)(F)F)C(F)(F)F)s1 | active: 3.86
55 | Cc1cc(C)c(C#N)c(SCc2nc3ccccc3[nH]2)n1 | -0.243
56 | CCCCC(=O)Nc1ccc2c(c1)nc1n2CCSC1 | 0.107
57 | CCOc1cc(NC(=O)C2CC2)c(OCC)cc1NC(=O)CCn1nnc2ccccc21 | -0.203
58 | O=C(Nc1nccs1)c1ccc(Br)c(S(=O)(=O)N2CCOCC2)c1 | 0.708
59 | O=C(O)Cn1cc(C(=O)c2cccs2)c2ccccc21 | -0.354
60 | Nc1nc(CSC(=S)N2CCOCC2)nc(Nc2ccc(F)cc2)n1 | -0.0752
61 | COc1ccc(-c2nc(NC(=O)c3ccccc3)sc2-c2ccc([N+](=O)[O-])cc2)cc1 | 0.0348
62 | O=c1oc2ccccc2c(O)c1/C=C1\C=Nc2ccccc21 | -1.73
63 | CCOC(=O)c1c(NC(=O)C2COc3ccccc3O2)sc2c1CCN(Cc1ccccc1)C2 (stereo unspecified) | -0.107
64 | CC(=O)Nc1ccc(-c2nnc(SCc3ccc(C)cc3)n2C)cc1 | -0.258
65 | CN(CC(=O)Nc1ccc(N2CCOCC2)cc1)CC(=O)Nc1ccc(Cl)cc1[N+](=O)[O-] | 0.0212
66 | COc1cc(NC(=S)Nc2cccnc2)cc(OC)c1 | 0.0987
67 | Nc1nonc1-n1nnc(C(=O)O)c1-c1cccs1 | 0.729
68 | Cc1cc(=O)oc(C)c1C(=O)Nc1ccc(Cl)cn1 | -0.372
69 | COc1cc(-c2noc(CCC(N)=O)n2)cc(OC)c1OC | 1.39
70 | O=C(NNC(=S)NC(=O)c1ccccc1[N+](=O)[O-])c1ccccc1[N+](=O)[O-] | 0.132
71 | O=S(=O)(N1CCOCC1)N1CCN(c2ccccc2F)CC1 | 0.83
